# Reference: the supplement of paper PMC4604168 (melanoma cell lines)
# The other results are listed elsewhere or left out. Single values are uncertain, as repeats are few or missing.
# Test system: COLO800
# Assay: cell count relative to DMSO control; melanoma cells; higher = more viable cells
# Settings: library dose: low library concentration; 72 h
# 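Also: cell number obtained by counting DAPI-stained nuclei in high-throughput microscope images with image analysis software, screen run in 1,536-well plates.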
row,Compound,cell count [%]
1,"C=CCNC1=C2C[C@@H](C)C[C@H](OC)[C@H](O)[C@@H](C)/C=C(\C)[C@H](OC(N)=O)[C@@H](OC)/C=C\C=C(/C)C(=O)NC(=CC1=O)C2=O [Tanespimycin] + Cn1cc(/C=C2\C(=O)Nc3cccnc32)c2ccccc21 [GW441756] (first compound 0.002 µM, partner dose 0.4 µM)",127
2,"CNC(=O)c1cc(Oc2ccc(NC(=O)Nc3ccc(Cl)c(C(F)(F)F)c3)cc2)ccn1 [sorafenib] + c1cc(-c2cnn3cc(-c4ccc(OCCN5CCCCC5)cc4)cnc23)ccn1 [Dorsomorphin] (first compound 0.4 µM, partner dose 0.4 µM)",180
3,"C[C@@H](Oc1cc(-c2cnn(C3CCNCC3)c2)cnc1N)c1c(Cl)ccc(F)c1Cl [Crizotinib] + COc1cc(N2CCC(N3CCN(C)CC3)CC2)ccc1Nc1ncc(Cl)c(Nc2ccccc2S(=O)(=O)C(C)C)n1 [NVP-TAE684] (first compound 0.2 µM, partner dose 0.08 µM)",126
4,"CNC(=O)c1cc(Oc2ccc(NC(=O)Nc3ccc(Cl)c(C(F)(F)F)c3)cc2)ccn1 [sorafenib] + CCCCCCCCCCCC1=C(O)C(=O)C=C(O)C1=O [Embelin] (first compound 0.4 µM, partner dose 1.2 µM)",138
5,"CS(=O)(=O)CCNCc1ccc(-c2ccc3ncnc(Nc4ccc(OCc5cccc(F)c5)c(Cl)c4)c3c2)o1 [lapatinib] + O=C(Nc1ccccc1)c1cc([N+](=O)[O-])ccc1Cl [GW9662] (first compound 0.8 µM, partner dose 2 µM)",74.9
6,"CS(=O)(=O)CCNCc1ccc(-c2ccc3ncnc(Nc4ccc(OCc5cccc(F)c5)c(Cl)c4)c3c2)o1 [lapatinib] + COc1ccc2c(c1)CCC1C2CCC2(C)C(NCCCCCCN3C(=O)C=CC3=O)CCC12 [U73122] (first compound 0.8 µM, partner dose 0.4 µM)",75.2
7,"CNC(=O)c1cc(Oc2ccc(NC(=O)Nc3ccc(Cl)c(C(F)(F)F)c3)cc2)ccn1 [sorafenib] + O=C(Nc1ccccc1)c1cc([N+](=O)[O-])ccc1Cl [GW9662] (first compound 0.4 µM, partner dose 2 µM)",125
8,"CS(=O)(=O)CCNCc1ccc(-c2ccc3ncnc(Nc4ccc(OCc5cccc(F)c5)c(Cl)c4)c3c2)o1 [lapatinib] + COc1ccc(-c2ccc3c(N4CCOCC4)nc(N4C[C@@H](C)O[C@@H](C)C4)nc3n2)cc1CO [KU0063794] (first compound 0.8 µM, partner dose 0.02 µM)",113
9,"CS(=O)(=O)CCNCc1ccc(-c2ccc3ncnc(Nc4ccc(OCc5cccc(F)c5)c(Cl)c4)c3c2)o1 [lapatinib] + O=C1NC(=O)/C(=C/c2ccc(-c3ccc(F)cc3O)o2)S1 [AS252424] (first compound 0.8 µM, partner dose 1 µM)",58.7
10,"CNC(=O)c1cc(Oc2ccc(NC(=O)Nc3ccc(Cl)c(C(F)(F)F)c3)cc2)ccn1 [sorafenib] + COc1cc(N2CCC(N3CCN(C)CC3)CC2)ccc1Nc1ncc(Cl)c(Nc2ccccc2S(=O)(=O)C(C)C)n1 [NVP-TAE684] (first compound 0.4 µM, partner dose 0.08 µM)",107
11,"CN1CCN(c2ccc3nc(-c4c(N)c5c(F)cccc5[nH]c4=O)[nH]c3c2)CC1 [Dovitinib] + COc1cc2ncnc(Nc3ccc(Oc4ccccc4)cc3)c2cc1OC [SrcI1] (first compound 0.1 µM, partner dose 2 µM)",43.2
12,"CN1CCN(c2ccc3nc(-c4c(N)c5c(F)cccc5[nH]c4=O)[nH]c3c2)CC1 [Dovitinib] + CC(C)CCN1c2nc(Nc3cc(F)c(O)c(F)c3)ncc2N(C)C(=O)C1C [BID1870] (first compound 0.1 µM, partner dose 0.2 µM)",93.4
13,"CN1CCN(c2ccc3nc(-c4c(N)c5c(F)cccc5[nH]c4=O)[nH]c3c2)CC1 [Dovitinib] + O=C1NC(=O)/C(=C/c2ccc(-c3ccc(F)cc3O)o2)S1 [AS252424] (first compound 0.1 µM, partner dose 1 µM)",78.2
14,"C=CCNC1=C2C[C@@H](C)C[C@H](OC)[C@H](O)[C@@H](C)/C=C(\C)[C@H](OC(N)=O)[C@@H](OC)/C=C\C=C(/C)C(=O)NC(=CC1=O)C2=O [Tanespimycin] + CCN(CC)CCCCNc1ncc2cc(-c3cc(OC)cc(OC)c3)c(NC(=O)NC(C)(C)C)nc2n1 [PD173074] (first compound 0.002 µM, partner dose 0.1 µM)",56.6
15,"C[C@@H](Oc1cc(-c2cnn(C3CCNCC3)c2)cnc1N)c1c(Cl)ccc(F)c1Cl [Crizotinib] + CCCCCCCCCCCC1=C(O)C(=O)C=C(O)C1=O [Embelin] (first compound 0.2 µM, partner dose 1.2 µM)",148
16,"CN1CCN(c2ccc3nc(-c4c(N)c5c(F)cccc5[nH]c4=O)[nH]c3c2)CC1 [Dovitinib] + CCCCCCCCCCCC1=C(O)C(=O)C=C(O)C1=O [Embelin] (first compound 0.1 µM, partner dose 1.2 µM)",84.3
17,"CN1CCN(c2ccc3nc(-c4c(N)c5c(F)cccc5[nH]c4=O)[nH]c3c2)CC1 [Dovitinib] + CCN(CC)CCCCNc1ncc2cc(-c3cc(OC)cc(OC)c3)c(NC(=O)NC(C)(C)C)nc2n1 [PD173074] (first compound 0.1 µM, partner dose 0.1 µM)",121
18,"CS(=O)(=O)CCNCc1ccc(-c2ccc3ncnc(Nc4ccc(OCc5cccc(F)c5)c(Cl)c4)c3c2)o1 [lapatinib] + COC(=O)c1sccc1S(=O)(=O)Nc1ccc(Nc2ccccc2)cc1OC [GSK0660] (first compound 0.8 µM, partner dose 1 µM)",109
19,"C=CCNC1=C2C[C@@H](C)C[C@H](OC)[C@H](O)[C@@H](C)/C=C(\C)[C@H](OC(N)=O)[C@@H](OC)/C=C\C=C(/C)C(=O)NC(=CC1=O)C2=O [Tanespimycin] + COC(=O)c1sccc1S(=O)(=O)Nc1ccc(Nc2ccccc2)cc1OC [GSK0660] (first compound 0.002 µM, partner dose 1 µM)",87.8
20,"C[C@@H](Oc1cc(-c2cnn(C3CCNCC3)c2)cnc1N)c1c(Cl)ccc(F)c1Cl [Crizotinib] + O=S(=O)(c1ccccc1)N(CC(F)(F)F)c1ccc(C(O)(C(F)(F)F)C(F)(F)F)cc1 [T0901317] (first compound 0.2 µM, partner dose 1.4 µM)",143
21,"C=CCNC1=C2C[C@@H](C)C[C@H](OC)[C@H](O)[C@@H](C)/C=C(\C)[C@H](OC(N)=O)[C@@H](OC)/C=C\C=C(/C)C(=O)NC(=CC1=O)C2=O [Tanespimycin] + CCCCCCCCCCCC1=C(O)C(=O)C=C(O)C1=O [Embelin] (first compound 0.002 µM, partner dose 1.2 µM)",146
22,"CNC(=O)c1cc(Oc2ccc(NC(=O)Nc3ccc(Cl)c(C(F)(F)F)c3)cc2)ccn1 [sorafenib] + COC(=O)c1sccc1S(=O)(=O)Nc1ccc(Nc2ccccc2)cc1OC [GSK0660] (first compound 0.4 µM, partner dose 1 µM)",115
23,"CNC(=O)c1cc(Oc2ccc(NC(=O)Nc3ccc(Cl)c(C(F)(F)F)c3)cc2)ccn1 [sorafenib] + CCN(CC)CCCCNc1ncc2cc(-c3cc(OC)cc(OC)c3)c(NC(=O)NC(C)(C)C)nc2n1 [PD173074] (first compound 0.4 µM, partner dose 0.1 µM)",102
24,"CN1CCN(c2ccc3nc(-c4c(N)c5c(F)cccc5[nH]c4=O)[nH]c3c2)CC1 [Dovitinib] + O=c1cc(-c2cccc3c2Sc2ccccc2S3)oc(N2CCOCC2)c1 [KU55933] (first compound 0.1 µM, partner dose 1 µM)",90
25,"C=CCNC1=C2C[C@@H](C)C[C@H](OC)[C@H](O)[C@@H](C)/C=C(\C)[C@H](OC(N)=O)[C@@H](OC)/C=C\C=C(/C)C(=O)NC(=CC1=O)C2=O [Tanespimycin] + O=C1NC(=O)/C(=C/c2ccc(-c3ccc(F)cc3O)o2)S1 [AS252424] (first compound 0.002 µM, partner dose 1 µM)",89.1
26,"C=CCNC1=C2C[C@@H](C)C[C@H](OC)[C@H](O)[C@@H](C)/C=C(\C)[C@H](OC(N)=O)[C@@H](OC)/C=C\C=C(/C)C(=O)NC(=CC1=O)C2=O [Tanespimycin] + O=C(O)C(=O)Nc1sc2c(c1C(=O)O)CCNC2 [TCS401] (first compound 0.002 µM, partner dose 1.66667 µM)",128
27,"C=CCNC1=C2C[C@@H](C)C[C@H](OC)[C@H](O)[C@@H](C)/C=C(\C)[C@H](OC(N)=O)[C@@H](OC)/C=C\C=C(/C)C(=O)NC(=CC1=O)C2=O [Tanespimycin] + COc1ccc2c(c1)CCC1C2CCC2(C)C(NCCCCCCN3C(=O)C=CC3=O)CCC12 [U73122] (first compound 0.002 µM, partner dose 0.4 µM)",110
28,"CNC(=O)c1cc(Oc2ccc(NC(=O)Nc3ccc(Cl)c(C(F)(F)F)c3)cc2)ccn1 [sorafenib] + N#Cc1c(O)c2c(-c3ccc(-c4ccccc4O)cc3)csc2[nH]c1=O [A769662] (first compound 0.4 µM, partner dose 2 µM)",114
